# Laboratory results as given in PubChem BioAssay AID1347073 (National Center for Advancing Translational Sciences (NCATS), 2019).
# Hit rate of the full screen: of about 45,000 compounds, about 200 (0.44%) were called active. Roughly 7% stayed inconclusive and do not appear here. Calls come from the whole dose curve; as a rule, active = well fitted activation curve with a large enough effect; inconclusive = small, poorly fitted or top-dose-only effect; inactive = no such curve, though single readings can be large or run the other way. This is one part of the list.
# Assay: qHTS of TDP-43 Inhibitors: NCGC Sytravon Library Screen; note: nearly all actives have a fitted effect of over 55% in size; for growth rescue (activation): 0% is about no effect
# Conditions: yeast TDP-43 toxicity rescue, BacTiter-Glo growth, 24 h; series mostly up to 46.1 µM; growth rescue (activation): at the top concentration
# Outline: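 TDP-43-expressing yeast, pregrown in raffinose, seeded at OD600 0.02 in galactose medium with compound for 24 hr at 30 deg C. Growth read by BacTiter-Glo luminescence, so rescue of toxicity appears as activation.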
# Potency is the fitted concentration of half-maximal effect.
Compound,growth rescue (activation),Potency
Cn1c(SCC(=O)N2CCCC2=O)nc2ccccc2c1=O,inactive: 17.4%,–
CC(=O)N1CCN(C(=S)NC(=O)c2ccc(F)cc2)CC1,inactive: -24.6%,–
Cc1cnc(C(=O)OCC(=O)N(Cc2ccccc2)C(C)C)cn1,inactive: 19%,–
O=C(c1ccc(Cn2c(=S)[nH]c3ccccc3c2=O)cc1)N1CCN(c2ccccn2)CC1,inactive: -8.07%,–
Cc1ccc(NC(=O)COC(=O)c2ccc(NC(=O)CC#N)cc2)cc1S(=O)(=O)N1CCOCC1,inactive: -17.4%,–
COC(=O)CCSc1cc(NCCOC(C)=O)c([N+](=O)[O-])c2nonc12,inactive: 7.88%,–
O=C(CCNS(=O)(=O)c1ccc(Cl)cc1)N1CCN(c2ccccn2)CC1,inactive: 1.77%,–
CC(C)C(=O)N1CCC1(C)C(=O)Nc1nc2ccccc2[nH]1 (centres undefined),inactive: 7.66%,–
CCOc1ccccc1NC(=O)NCc1ccc(F)cc1,inactive: -0.846%,–
CCNC(=O)C1(C)CCN(Cc2ccc(OC(F)(F)F)cc2)C1 (centres undefined),inactive: 6.04%,–
C/C(=N\NC(=O)c1nnn(-c2nonc2N)c1C)c1ccc(-c2ccccc2)cc1,inactive: 1.42%,–
COc1ccc(C(C(=O)NC(C)(C)C)N(C(=O)CCC(=O)Nc2cc(C)on2)c2cccc(F)c2)cc1 (centres undefined),inactive: 4.62%,–
COc1ccc(CC(=O)NNc2ncnc3c2cnn3C)cc1,inactive: 7%,–
CC1(C(=O)Nc2ccc3c(c2)OCO3)CCN1C(=O)CCc1cccs1 (centres undefined),inactive: 22.9%,–
CCn1c(COc2ccccc2)nnc1SCC(=O)NCc1ccco1,inactive: -28.7%,–
Cc1ccc(-c2cn(-c3ccccc3)c(=S)[nH]2)cc1C,inactive: 11.6%,–
N#Cc1cccc(NC(=O)CN2CCCCCC2)c1,inactive: 11.8%,–
O=C(COC(=O)c1ccccc1)Nc1cccc(S(=O)(=O)NC2=NCCCCC2)c1,inactive: 1.05%,–
COc1ccc(NC(=O)NC2(C)CCS(=O)(=O)C2)cc1 (centres undefined),inactive: -7.91%,–
COc1ccc(CC(=O)Nc2cccc(-c3nnc(-c4ccco4)o3)c2)cc1,inactive: 19.6%,–
C=CCNc1ncnc2c1ncn2[C@H]1CN(C2CCCC2)C[C@@H](CO)O1,inactive: 9.38%,–
CCC(=O)Nc1cc2nn(-c3ccc(C)cc3)nc2cc1C,–,inactive
CC(C)N(C(C)C)S(=O)(=O)c1ccc(N2CCc3ccccc3C2)nc1,inactive: 37.7%,–

Compound,growth rescue (activation),Potency
COc1ccc(Cl)cc1NC(=O)CN(C)Cc1cccs1,inactive: 12.3%,–
Cc1ccc(O)c(NC(=O)c2cc(-c3cccs3)on2)c1,inactive: 6.13%,–
COC(=O)c1ccc(CNC(=O)CCC(=O)N2CCOCC2)cc1,inactive: -17.8%,–
COc1ccc(S(=O)(=O)N2CCOCC2)cc1NC(=O)CSc1nnc2n1CCCCC2,inactive: 30.7%,–
CCOC(=O)c1c(N2C(=O)Nc3ccccc3N2O)n[nH]c1-c1cccc(Cl)c1,inactive: 14.2%,–
COc1ccccc1NC(=O)Cn1c([N+](=O)[O-])cnc1C,inactive: 3.15%,–
CCOC(=O)c1c(NC2=NS(=O)(=O)c3ccccc32)sc2c1CCC(C)C2 (centres undefined),inactive: -3.09%,–
COC(=O)CC(c1ccc(OC)c(OC)c1)c1ccc(OC)c(OC)c1,inactive: 11.9%,–
Cc1ccc(C(=O)NC(C)c2ccc(S(N)(=O)=O)cc2)s1 (centres undefined),inactive: 13.3%,–
COc1ccc(Cn2nnc3c(=O)[nH]c(C4CCN(C(=O)c5ccccc5Cl)CC4)nc32)cc1,inactive: -27.2%,–
Oc1ccc(Cl)cc1N=Cc1sc2ccccc2c1Cl,inactive: 0.38%,–
COc1ccc(/C=C2/C(=O)N(Cc3ccccc3)N=C2C)cc1,inactive: -8.48%,–
C=CCn1c(-c2cc(-c3ccc(C)cc3)nc3ccccc23)n[nH]c1=S,–,active: 14.1 µM
N#Cc1cccc(NC(=O)c2cc(C3CCCCN3S(=O)(=O)c3cccc4cccnc34)on2)c1 (centres undefined),inactive: 27%,–
COc1ccc(C2c3c(ccc4ccccc34)Oc3ncn4nc(Cc5ccccc5)nc4c32)cc1OC (centres undefined),inactive: 4.69%,–
CCC(C(=O)Nc1cccc(C(=O)O)c1)c1ccccc1 (centres undefined),inactive: 0.0319%,–
Cc1noc(C)c1COC(=O)[C@@H](NC(=O)c1ccccc1Cl)C(C)C,inactive: 4.73%,–
CCN(CC)c1ccc(/C=C/c2cccc[n+]2C)c(OC)c1,inactive: -12.3%,–
Cc1nc2ccccc2c(=O)n1NC(=O)/C=C/c1ccccc1Cl,inactive: 1.15%,–
CC(=O)Nc1ccc(NC(=O)CSc2ncnc3c2cnn3Cc2ccccc2)cc1,inactive: -3.1%,–
Nc1nnc(SCC(=O)c2ccc3c(c2)NC(=O)CO3)s1,inactive: -0.303%,–
NS(=O)(=O)c1ccc(NC(=S)N2CCN(c3ccccc3)CC2)cc1,inactive: 5.6%,–
COc1cc(S(=O)(=O)N2CCn3cccc3C2C)ccc1NC(C)=O (centres undefined),inactive: 25.9%,–

Compound,growth rescue (activation),Potency
CSc1ccc(/C=C/C(=O)OCC(=O)N2CCCCCC2)cc1,inactive: 24%,–
Cc1ccc(/C=N/N2CCOCC2)s1,inactive: 14.3%,–
COCCNC(=S)N/N=C(\C)c1ccccc1OC,inactive: -23.1%,–
NC(=O)c1ccc(NC(=O)CSc2nnc(C3CC3)n2C2CC2)cc1,inactive: 18.2%,–
CC(=O)Nc1ccc(-c2ccnc3c2CC(C(=O)Nc2cccc(C(C)=O)c2)O3)cc1 (centres undefined),inactive: 4.88%,–
CC1=C(C(=O)OCC(C)C)C(c2ccc(Br)s2)NC(=O)N1 (centres undefined),inactive: 6.95%,–
O=C(c1cccc(-c2cncc3nccn23)c1)N1CCOCC1,inactive: -7.46%,–
COc1ccc(OC(C)C(=O)N2CCCc3ccccc32)cc1 (centres undefined),inactive: 29.3%,–
CCOC(=O)/C(C#N)=C1\C(=O)N(Cc2ccccc2)c2ccccc21,inactive: -3.65%,–
COCCn1ccc(O)c(Cc2ccccc2)c1=O,inactive: -25.4%,–
Cc1c(CCC(=O)O)c(=O)oc2c(C)c(OCc3cc4c(cc3Cl)OCO4)ccc12,inactive: 15.3%,–
Cn1c(NC(=O)/C=C/c2ccco2)cc(=O)n(C)c1=O,inactive: -19.1%,–
CSCc1ccc(C(=O)Nc2ccc(C(N)=O)cc2)cc1,inactive: 7.72%,–
O=C1c2ccccc2C(=O)N1c1ccccc1S(=O)C(F)(F)F (centres undefined),inactive: 17.3%,–
CC12CN3CCN(CC(C3)/C1=N\NC(=O)Nc1cccc(Cl)c1)C2,inactive: 0.199%,–
Oc1cccc2ccc[n+](CC(O)Cn3c4ccccc4c4ccccc43)c12 (centres undefined),inactive: 6.09%,–
O=C(N/N=C/c1cccc2nccnc12)c1ccncc1,inactive: -1.7%,–
C=CCN1C(=O)/C(=C2/Sc3ccc(OC)cc3N2C)SC1=Nc1ccccc1,inactive: 9.79%,–
COc1ccc2c(C)cc(SCC(=O)Nc3cc(C(N)=O)cc(C(N)=O)c3)nc2c1,inactive: 22.3%,–
CCOC(=O)c1sc2nc(C)n(N)c(=O)c2c1C,inactive: 23.5%,–
CSc1nnc(-c2ccc(S(=O)(=O)N3CCCCC3)cc2)o1,inactive: 9.04%,–
O=C(O)c1cccc(Nc2ccc([N+](=O)[O-])c3nonc23)c1,inactive: 24.4%,–
CCN(CC)CCCNC(=S)N(Cc1cccnc1)Cc1cc2cc(C)cc(C)c2[nH]c1=O,inactive: -0.216%,–
